As a reminder, the Kd is the concentration at which binding is half-saturated. A higher Kd goes with weaker binding.

Data on 1 molecule can be found in paper PMC4275594 (Nature Communications, 2014).

In this test the target is T1, C-terminal 6xHis tagged IL-18Rβ extracellular domains (residues 15-356), for SPR (human, UniProt O95256-1 15-356).
T1 construct: human IL-18 receptor β, extracellular domains, residues 15-356 of NM_003853; also called IL-18Rβ WT; IL-18Rβ WT (control); source: silkworm (B. mori) larvae, BmNPV bacmid, haemolymph, purified as from Sf9; not shown: 6xHis, C-terminal, kept
T1 sequence (looked up): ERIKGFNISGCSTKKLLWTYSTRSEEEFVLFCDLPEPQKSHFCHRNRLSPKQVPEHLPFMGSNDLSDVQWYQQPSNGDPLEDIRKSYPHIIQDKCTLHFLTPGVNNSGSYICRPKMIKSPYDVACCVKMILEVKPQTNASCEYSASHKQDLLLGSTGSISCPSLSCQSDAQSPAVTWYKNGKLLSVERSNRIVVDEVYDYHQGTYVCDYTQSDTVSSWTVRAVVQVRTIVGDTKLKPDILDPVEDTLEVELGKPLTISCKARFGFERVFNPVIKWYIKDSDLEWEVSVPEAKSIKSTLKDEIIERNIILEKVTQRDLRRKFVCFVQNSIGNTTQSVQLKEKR
Briefly: SPR; BIAcore 3000, 25 °C, C-terminal 6xHis IL-18Rβ immobilised (~100 RU) on an NTA sensor chip, un-tagged IL-18Rα saturated with 500 nM IL-18 as analyte in HBS-P. To be noted: both partners purified.

B1: IL-18 M150A/IL-18Rα WT complex (SPR analyte) (complex)
chain 1: [no letters for about 150 residues with changes]
chain 2: ESCTSRPHITVVEGEPFYLKHCSCSLAHEIETTTKSWYKSSGSQEHVELNPRSSSRIALHDCVLEFWPVELNDTGSYFFQMKNYTQKWKLNVIRRNKHSCFTERQVTSKIVEVKKFFQITCENSYYQTLVNSTSLYKNCKKLLLENNKNPTIKKNAEFEDQGYYSCVHFLHHNGKLFNITKTFNITIVEDRSNIVPVLLGPKLNHVAVELGKNVRLNCSALLNEEDVIYWMFGEENGSDPNIHEEKEMRIMTPEGKWHASKVLRIENIGESNLNVLYNCTVASTGGTDTKSFILVRKADMADIPGHVFTR
modifications: IL-18Rα N-glycosylated (insect/silkworm expression)
For the molecule B1, the Kd stood at 60 nM.
